Data on 31 molecules can be found in publication PMC9911399, “Two distinct binding modes provide the RNA-binding protein RbFox with extraordinary sequence specificity”.

Residue numbers refer to the chain shown, from its start. The list shows a part of the results.

The labels stand for the following.
T1: RBFOX1 RRM (Homo sapiens, UniProt Q9NWB1 109-208)
T1 sequence: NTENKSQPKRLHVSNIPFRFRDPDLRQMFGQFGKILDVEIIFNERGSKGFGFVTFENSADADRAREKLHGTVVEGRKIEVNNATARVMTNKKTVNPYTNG

B1: CUUUGAG (DNA:RNA)
RNA: GGGAGACCGGAAUUCAGAUUGUCCCUUUGAGUUAAAUCCCGUCGUAGCCACCA
DNA 1: CAATCTGAATTCCGGTCTCCC
DNA 2: TGGTGGCTACGACGGGATT
B2: UGUUUGC (DNA:RNA)
RNA: B1 RNA with C25U, U26G, G29U, A30G, G31C
DNA 1: CAATCTGAATTCCGGTCTCCC
DNA 2: TGGTGGCTACGACGGGATT
B3: CGACUAG (DNA:RNA)
RNA: B1 RNA with U26G, U27A, U28C, G29U
DNA 1: CAATCTGAATTCCGGTCTCCC
DNA 2: TGGTGGCTACGACGGGATT
B4: UAGCCGG (DNA:RNA)
RNA: B1 RNA with C25U, U26A, U27G, U28C, G29C, A30G
DNA 1: CAATCTGAATTCCGGTCTCCC
DNA 2: TGGTGGCTACGACGGGATT
B5: CGAGUUU (DNA:RNA)
RNA: B1 RNA with U26G, U27A, U28G, G29U, A30U, G31U
DNA 1: CAATCTGAATTCCGGTCTCCC
DNA 2: TGGTGGCTACGACGGGATT
B6: AGGCAGC (DNA:RNA)
RNA: GGGAGACCGGAAUUCAGAUUGUCCAGGCAGCUUAAAUCCCGUCGUAGCCACCA
DNA 1: CAATCTGAATTCCGGTCTCCC
DNA 2: TGGTGGCTACGACGGGATT
B7: AUACAGA (DNA:RNA)
RNA: B6 RNA with G26U, G27A, C31A
DNA 1: CAATCTGAATTCCGGTCTCCC
DNA 2: TGGTGGCTACGACGGGATT
B8: AUCGAAU (DNA:RNA)
RNA: B6 RNA with G26U, G27C, C28G, G30A, C31U
DNA 1: CAATCTGAATTCCGGTCTCCC
DNA 2: TGGTGGCTACGACGGGATT
B9: CGGUCUA (DNA:RNA)
RNA: B6 RNA with A25C, C28U, A29C, G30U, C31A
DNA 1: CAATCTGAATTCCGGTCTCCC
DNA 2: TGGTGGCTACGACGGGATT
B10: UAGGUAU (DNA:RNA)
RNA: B6 RNA with A25U, G26A, C28G, A29U, G30A, C31U
DNA 1: CAATCTGAATTCCGGTCTCCC
DNA 2: TGGTGGCTACGACGGGATT
B11: CCUAGCA (DNA:RNA)
RNA: B1 RNA with U26C, U28A, A30C, G31A
DNA 1: CAATCTGAATTCCGGTCTCCC
DNA 2: TGGTGGCTACGACGGGATT
B12: CGGAUAU (DNA:RNA)
RNA: B6 RNA with A25C, C28A, A29U, G30A, C31U
DNA 1: CAATCTGAATTCCGGTCTCCC
DNA 2: TGGTGGCTACGACGGGATT
B13: GACCUAA (DNA:RNA)
RNA: B6 RNA with A25G, G26A, G27C, A29U, G30A, C31A
DNA 1: CAATCTGAATTCCGGTCTCCC
DNA 2: TGGTGGCTACGACGGGATT
B14: UUACUGC (DNA:RNA)
RNA: B6 RNA with A25U, G26U, G27A, A29U
DNA 1: CAATCTGAATTCCGGTCTCCC
DNA 2: TGGTGGCTACGACGGGATT
B15: UAAGGUA (DNA:RNA)
RNA: B1 RNA with C25U, U26A, U27A, U28G, A30U, G31A
DNA 1: CAATCTGAATTCCGGTCTCCC
DNA 2: TGGTGGCTACGACGGGATT
B16: GGCAAGU (DNA:RNA)
RNA: B6 RNA with A25G, G27C, C28A, C31U
DNA 1: CAATCTGAATTCCGGTCTCCC
DNA 2: TGGTGGCTACGACGGGATT
B17: GAACUAG (DNA:RNA)
RNA: B1 RNA with C25G, U26A, U27A, U28C, G29U
DNA 1: CAATCTGAATTCCGGTCTCCC
DNA 2: TGGTGGCTACGACGGGATT
B18: GUCAUGU (DNA:RNA)
RNA: B6 RNA with A25G, G26U, G27C, C28A, A29U, C31U
DNA 1: CAATCTGAATTCCGGTCTCCC
DNA 2: TGGTGGCTACGACGGGATT
B19: ACAAUGC (DNA:RNA)
RNA: B6 RNA with G26C, G27A, C28A, A29U
DNA 1: CAATCTGAATTCCGGTCTCCC
DNA 2: TGGTGGCTACGACGGGATT
B20: GGGCGCC (DNA:RNA)
RNA: B6 RNA with A25G, A29G, G30C
DNA 1: CAATCTGAATTCCGGTCTCCC
DNA 2: TGGTGGCTACGACGGGATT
B21: CCGUGGC (DNA:RNA)
RNA: B6 RNA with A25C, G26C, C28U, A29G
DNA 1: CAATCTGAATTCCGGTCTCCC
DNA 2: TGGTGGCTACGACGGGATT
B22: GUUCGUA (DNA:RNA)
RNA: B1 RNA with C25G, U28C, A30U, G31A
DNA 1: CAATCTGAATTCCGGTCTCCC
DNA 2: TGGTGGCTACGACGGGATT
B23: CGCCGAA (DNA:RNA)
RNA: B1 RNA with U26G, U27C, U28C, G31A
DNA 1: CAATCTGAATTCCGGTCTCCC
DNA 2: TGGTGGCTACGACGGGATT
B24: UCGGGCA (DNA:RNA)
RNA: B6 RNA with A25U, G26C, C28G, A29G, G30C, C31A
DNA 1: CAATCTGAATTCCGGTCTCCC
DNA 2: TGGTGGCTACGACGGGATT
B25: CGAAUCA (DNA:RNA)
RNA: B6 RNA with A25C, G27A, C28A, A29U, G30C, C31A
DNA 1: CAATCTGAATTCCGGTCTCCC
DNA 2: TGGTGGCTACGACGGGATT
B26: CGAAGCG (DNA:RNA)
RNA: B1 RNA with U26G, U27A, U28A, A30C
DNA 1: CAATCTGAATTCCGGTCTCCC
DNA 2: TGGTGGCTACGACGGGATT
B27: ACUGUUC (DNA:RNA)
RNA: B6 RNA with G26C, G27U, C28G, A29U, G30U
DNA 1: CAATCTGAATTCCGGTCTCCC
DNA 2: TGGTGGCTACGACGGGATT
B28: GUUAGAC (DNA:RNA)
RNA: B1 RNA with C25G, U28A, G31C
DNA 1: CAATCTGAATTCCGGTCTCCC
DNA 2: TGGTGGCTACGACGGGATT
B29: ACCAAUA (DNA:RNA)
RNA: B6 RNA with G26C, G27C, C28A, G30U, C31A
DNA 1: CAATCTGAATTCCGGTCTCCC
DNA 2: TGGTGGCTACGACGGGATT
B30: GCUUAUU (DNA:RNA)
RNA: B1 RNA with C25G, U26C, G29A, A30U, G31U
DNA 1: CAATCTGAATTCCGGTCTCCC
DNA 2: TGGTGGCTACGACGGGATT
B31: CUACUAA (DNA:RNA)
RNA: B1 RNA with U27A, U28C, G29U, G31A
DNA 1: CAATCTGAATTCCGGTCTCCC
DNA 2: TGGTGGCTACGACGGGATT

This experiment deals with T1, RBFOX1 RRM. Put plainly: EMSA; HiTS-Eq, 1 nM pool, 10 min; buffer printed only for the single-RNA assays: 10 mM Tris pH 7.5, 150 mM NaCl, 3.4 mM EDTA, 0.001% NP-40, 30 C. The conditions noted are these: tags: His6 N-terminal (pET28a); label: 5' 32P. A digest of the protocol:
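Relative association constants, normalised to the cognate motif, were derived by comparing read counts of each RNA species with those of the control reaction. The RNA sequenced was the free fraction, separated by 8% native PAGE after a 10 min equilibration in 50 µL of 1 nM 5′-radiolabelled RNA (7 randomized nucleotides) with increasing concentrations of purified wild-type or mutant RbFox RRM.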
(In general: A gel shift assay detects complexes by their altered migration in electrophoresis.)
As to B1, the binding signal is 0.0184 KA relative to UGCAUGU.
The value for B2 was 0.0351 KA relative to UGCAUGU; that for B3 was 0.0115 KA relative to UGCAUGU; that for B4 was 0.00471 KA relative to UGCAUGU.
Regarding B5, the binding signal is 0.0135 KA relative to UGCAUGU.
B6: the binding signal is 0.0108 KA relative to UGCAUGU.
The value for B7 was 0.00233 KA relative to UGCAUGU; that for B8 was 0.00773 KA relative to UGCAUGU.
The value for B9 was 0.00571 KA relative to UGCAUGU; that for B10 was 0.0126 KA relative to UGCAUGU.
For B11 the value was 0.00724 KA relative to UGCAUGU.
As to B12, the binding signal was 0.0147 KA relative to UGCAUGU.
For B13 the value was 0.00233 KA relative to UGCAUGU.
The value for B14 was 0.0154 KA relative to UGCAUGU; that for B15 was 0.0116 KA relative to UGCAUGU.
The value for B16 was 0.0133 KA relative to UGCAUGU.
As to B17, the binding signal was 0.0127 KA relative to UGCAUGU.
The value for B18 was 0.0129 KA relative to UGCAUGU; that for B19 was 0.00386 KA relative to UGCAUGU; that for B20 was 0.019 KA relative to UGCAUGU.
The value for B21 was 0.00631 KA relative to UGCAUGU.
The value for B22 was 0.0142 KA relative to UGCAUGU; that for B23 was 0.00918 KA relative to UGCAUGU; that for B24 was 0.00559 KA relative to UGCAUGU.
As for B25, the binding signal is 0.00409 KA relative to UGCAUGU.
For B26 the value was 0.00799 KA relative to UGCAUGU.
For B27 the value was 0.0101 KA relative to UGCAUGU.
For B28 the value was 0.0164 KA relative to UGCAUGU; for B29, 0.00156 KA relative to UGCAUGU; for B30, 0.00758 KA relative to UGCAUGU.
B31: the binding signal was 0.00365 KA relative to UGCAUGU.
